{"source": "patent US20250296936A1", "about": "“SARS-COV2 MAIN PROTEASE INHIBITORS” (Gilead Sciences, Inc., priority 2024, published 2025)", "note": "pIC50: −log10 of the molar value."}
{"target": "recombinant SARS-CoV-2 Main protease (Mpro) (Severe acute respiratory syndrome coronavirus 2, UniProt P0DTD1)", "test": "Cov Mpro Biochemical IC50 Assay", "details": "7.5 nM Mpro, fluorogenic peptide substrate 40 μM, 20 min pre-incubation; read-out: MPro IC50"}
{"smiles": "COc1cc(-c2cc3c(o2)c(=O)n(-c2cncc4ccccc24)c(=O)n3CCC#N)c(Cl)cc1F", "note": "(single isomer, unassigned) [Example 59, 3-[6-(2-chloro-4-fluoro-5-methoxy-phenyl)-3-(4-isoquinolyl)-2,4-dioxo-furo[3,2-d]pyrimidin-1-yl]propanenitrile]", "pIC50": "> 8.43"}
{"smiles": "COc1cc(-c2cc3c(o2)c(=O)n(-c2cncc4ccccc24)c(=O)n3CCC#N)c(Cl)cc1F", "note": "(single isomer, unassigned) [Example 60, 3-[6-(2-chloro-4-fluoro-5-methoxy-phenyl)-3-(4-isoquinolyl)-2,4-dioxo-furo[3,2-d]pyrimidin-1-yl]propanenitrile]", "pIC50": 7.22}
{"smiles": "Cn1ncc2cncc(-n3c(=O)c4oc(-c5ccccc5Cl)cc4n(CCC#N)c3=O)c21", "note": "(single isomer, unassigned) [Example 61, 3-[6-(2-chlorophenyl)-3-(1-methylpyrazolo[4,3-c]pyridin-7-yl)-2,4-dioxo-furo[3,2-d]pyrimidin-1-yl]propanenitrile]", "pIC50": 8.42}
{"smiles": "Cn1ncc2cncc(-n3c(=O)c4oc(-c5ccccc5Cl)cc4n(CCC#N)c3=O)c21", "note": "(single isomer, unassigned) [Example 62, 3-[6-(2-chlorophenyl)-3-(1-methylpyrazolo[4,3-c]pyridin-7-yl)-2,4-dioxo-furo[3,2-d]pyrimidin-1-yl]propanenitrile]", "pIC50": 7.02}
{"smiles": "COc1cc(-c2cc3c(o2)c(=O)n(-c2cncc4cnn(C)c24)c(=O)n3CCC#N)c(Cl)cc1F", "note": "(single isomer, unassigned) [Example 63, 3-[6-(2-chloro-4-fluoro-5-methoxy-phenyl)-3-(1-methylpyrazolo[4,3-c]pyridin-7-yl)-2,4-dioxo-furo[3,2-d]pyrimidin-1-yl]propanenitrile]", "pIC50": 8.37}
{"smiles": "COc1cc(-c2cc3c(o2)c(=O)n(-c2cncc4cnn(C)c24)c(=O)n3CCC#N)c(Cl)cc1F", "note": "(single isomer, unassigned) [Example 64, 3-[6-(2-chloro-4-fluoro-5-methoxy-phenyl)-3-(1-methylpyrazolo[4,3-c]pyridin-7-yl)-2,4-dioxo-furo[3,2-d]pyrimidin-1-yl]propanenitrile]", "pIC50": 7.22}
{"smiles": "COc1cc(-c2cc3c(o2)c(=O)n(-c2cncc4cccnc24)c(=O)n3CCC#N)c(Cl)cc1F", "note": "(single isomer, unassigned) [Example 65, 3-(6-(2-chloro-4-fluoro-5-methoxyphenyl)-3-(1,6-naphthyridin-8-yl)-2,4-dioxo-3,4-dihydrofuro[3,2-d]pyrimidin-1(2H)-yl)propanenitrile]", "pIC50": "> 8.43"}
{"smiles": "COc1cc(-c2cc3c(o2)c(=O)n(-c2cncc4cccnc24)c(=O)n3CCC#N)c(Cl)cc1F", "note": "(single isomer, unassigned) [Example 66, 3-(6-(2-chloro-4-fluoro-5-methoxyphenyl)-3-(1,6-naphthyridin-8-yl)-2,4-dioxo-3,4-dihydrofuro[3,2-d]pyrimidin-1(2H)-yl)propanenitrile]", "pIC50": 7.10}
{"smiles": "COc1ccc(Cl)c(-c2cc3[nH]c(=O)n(-c4cncc5ccccc45)c(=O)c3o2)c1", "note": "[Example 3]", "pIC50": 7.89}
{"smiles": "O=c1[nH]c2cc(-c3ccccc3Cl)oc2c(=O)n1-c1cncc2c1CCCC2", "note": "[Example 5]", "pIC50": 7.17}
{"smiles": "Cn1ncc2cncc(-n3c(=O)[nH]c4cc(-c5ccccc5Cl)oc4c3=O)c21", "note": "[Example 6]", "pIC50": 7.28}
{"smiles": "O=c1[nH]c2cc(-c3ccccc3Cl)oc2c(=O)n1-c1cncc2ccc(F)cc12", "note": "[Example 7]", "pIC50": 7.37}
{"smiles": "Cc1cncc(-n2c(=O)[nH]c3cc(-c4ccccc4Cl)oc3c2=O)c1", "note": "[Example 8]", "pIC50": 7.45}
{"smiles": "Cn1ncc2cncc(-n3c(=O)[nH]c4cc(-c5ccc(F)cc5Cl)oc4c3=O)c21", "note": "[Example 9]", "pIC50": 6.52}
{"smiles": "COc1ccc2cncc(-n3c(=O)[nH]c4cc(-c5ccccc5Cl)oc4c3=O)c2c1", "note": "[Example 10]", "pIC50": 7.48}
{"smiles": "COc1cc(-c2cc3[nH]c(=O)n(-c4cnnc(C)c4)c(=O)c3o2)c(Cl)cc1F", "note": "[Example 12]", "pIC50": "< 4.30"}
{"smiles": "O=c1[nH]c2oc(-c3ccccc3)nc2c(=O)n1-c1cncc2ccccc12", "note": "[Example 13]", "pIC50": 6.00}
{"smiles": "O=c1[nH]c2oc(-c3ccccc3Cl)cc2c(=O)n1-c1cncc2ccccc12", "note": "[Example 14]", "pIC50": 7.52}
{"smiles": "COc1cc(-c2cc3[nH]c(=O)n(-c4cccnn4)c(=O)c3o2)c(Cl)cc1F", "note": "[Example 15]", "pIC50": 6.27}
{"smiles": "COc1cc(-c2cc3c(o2)c(=O)n(-c2cncc4ccccc24)c(=O)n3CCC#N)c(Cl)cc1F", "note": "[Example 16, 3-(6-(2-chloro-4-fluoro-5-methoxyphenyl)-3-(isoquinolin-4-yl)-2,4-dioxo-3,4-dihydrofuro[3,2-d]pyrimidin-1(2H1)-yl)propanenitrile]", "pIC50": 8.02}
{"smiles": "COc1cc(-c2cc3c(o2)c(=O)n(-c2cncc4cnn(C)c24)c(=O)n3CCC#N)c(Cl)cc1F", "note": "[Example 17]", "pIC50": 7.97}
{"smiles": "Cn1ncc2cncc(-n3c(=O)c4oc(-c5ccccc5Cl)cc4n(CCC#N)c3=O)c21", "note": "[Example 18]", "pIC50": 7.88}
{"smiles": "N#CCCn1c(=O)n(-c2cncc3ccccc23)c(=O)c2oc(-c3ccccc3Cl)cc21", "note": "[Example 19]", "pIC50": 8.03}
{"smiles": "COc1ccc2cncc(-n3c(=O)c4oc(-c5ccccc5Cl)cc4n(CCC#N)c3=O)c2c1", "note": "[Example 20]", "pIC50": 7.86}
{"smiles": "N#CCCn1c(=O)n(-c2cncc3c2CCCC3)c(=O)c2oc(-c3ccccc3Cl)cc21", "note": "[Example 21]", "pIC50": 7.77}
{"smiles": "N#CCCn1c(=O)n(-c2cncc3ccc(F)cc23)c(=O)c2oc(-c3ccccc3Cl)cc21", "note": "[Example 22]", "pIC50": 7.74}
{"smiles": "Cc1cncc(-n2c(=O)c3oc(-c4ccccc4Cl)cc3n(CCC#N)c2=O)c1", "note": "[Example 23]", "pIC50": 7.94}
{"smiles": "Cn1ncc2cncc(-n3c(=O)c4oc(-c5ccc(F)cc5Cl)cc4n(CCC#N)c3=O)c21", "note": "[Example 24]", "pIC50": 7.51}
{"smiles": "N#CCCn1c(=O)n(-c2cncc3ccccc23)c(=O)c2oc(-c3ccc(F)cc3Cl)cc21", "note": "[Example 25]", "pIC50": 7.61}
{"smiles": "COc1cc(-c2cc3c(o2)c(=O)n(-c2cccnn2)c(=O)n3CCC#N)c(Cl)cc1F", "note": "[Example 26]", "pIC50": 7.17}
{"smiles": "COc1cc(-c2cc3c(o2)c(=O)n(-c2cnnc(C)c2)c(=O)n3CCC#N)c(Cl)cc1F", "note": "[Example 27]", "pIC50": 6.03}
{"smiles": "COc1cc(-c2cc3c(o2)c(=O)n(-c2cncc4ccccc24)c(=O)n3C)c(Cl)cc1F", "note": "[Example 28, 6-(2-chloro-4-fluoro-5-methoxy-phenyl)-3-(4-isoquinolyl)-1-methyl-furo[3,2-d]pyrimidine-2,4-dione]", "pIC50": 6.93}
{"smiles": "Cn1ncc2cncc(-n3c(=O)c4oc(-c5ccccc5Cl)cc4n(C)c3=O)c21", "note": "[Example 29]", "pIC50": 6.41}
{"smiles": "COc1cc(-c2cc3c(o2)c(=O)n(-c2cncc4cnn(C)c24)c(=O)n3C)c(Cl)cc1F", "note": "[Example 30]", "pIC50": 6.56}
{"smiles": "Cn1c(=O)n(-c2cncc3ccccc23)c(=O)c2oc(-c3ccccc3Cl)cc21", "note": "[Example 31]", "pIC50": 6.83}
{"smiles": "COc1ccc2cncc(-n3c(=O)c4oc(-c5ccccc5Cl)cc4n(C)c3=O)c2c1", "note": "[Example 32]", "pIC50": 6.83}
{"smiles": "Cn1c(=O)n(-c2cncc3ccccc23)c(=O)c2cc(-c3ccccc3Cl)oc21", "note": "[Example 33]", "pIC50": 7.37}
{"smiles": "Cn1c(=O)n(-c2cncc3c2CCCC3)c(=O)c2oc(-c3ccccc3Cl)cc21", "note": "[Example 34]", "pIC50": 6.46}
{"smiles": "Cc1cncc(-n2c(=O)c3oc(-c4ccccc4Cl)cc3n(C)c2=O)c1", "note": "[Example 35]", "pIC50": 6.51}
{"smiles": "Cn1c(=O)n(-c2cncc3ccccc23)c(=O)c2oc(-c3ccc(F)cc3Cl)cc21", "note": "[Example 36]", "pIC50": 5.93}
{"smiles": "COc1cc(-c2cc3c(o2)c(=O)n(-c2cncc4ccccc24)c(=O)n3CC#N)c(Cl)cc1F", "note": "[Example 37, 2-(6-(2-chloro-4-fluoro-5-methoxyphenyl)-3-(isoquinolin-4-yl)-2,4-dioxo-3,4-dihydrofuro[3,2-d]pyrimidin-1(2H)-yl)acetonitrile]", "pIC50": 8.25}
{"smiles": "Cn1ncc2cncc(-n3c(=O)c4oc(-c5ccccc5Cl)cc4n(CC#N)c3=O)c21", "note": "[Example 38]", "pIC50": 8.28}
{"smiles": "COc1cc(-c2cc3c(o2)c(=O)n(-c2cncc4cnn(C)c24)c(=O)n3CC#N)c(Cl)cc1F", "note": "[Example 39]", "pIC50": 8.20}
{"smiles": "N#CCn1c(=O)n(-c2cncc3ccccc23)c(=O)c2oc(-c3ccccc3Cl)cc21", "note": "[Example 40]", "pIC50": 8.18}
{"smiles": "COc1ccc2cncc(-n3c(=O)c4oc(-c5ccccc5Cl)cc4n(CC#N)c3=O)c2c1", "note": "[Example 41]", "pIC50": 8.23}
{"smiles": "N#CCn1c(=O)n(-c2cncc3c2CCCC3)c(=O)c2oc(-c3ccccc3Cl)cc21", "note": "[Example 42]", "pIC50": 8.12}
{"smiles": "N#CCn1c(=O)n(-c2cncc3ccc(F)cc23)c(=O)c2oc(-c3ccccc3Cl)cc21", "note": "[Example 43]", "pIC50": 8.16}
{"smiles": "Cc1cncc(-n2c(=O)c3oc(-c4ccccc4Cl)cc3n(CC#N)c2=O)c1", "note": "[Example 45]", "pIC50": 8.33}
{"smiles": "N#CCn1c(=O)n(-c2cncc3ccccc23)c(=O)c2oc(-c3ccc(F)cc3Cl)cc21", "note": "[Example 46]", "pIC50": 8.13}
{"smiles": "COc1cc(-c2cc3c(o2)c(=O)n(-c2cncc4ccccc24)c(=O)n3CC2(C#N)CC2)c(Cl)cc1F", "note": "[Example 47, 1-((6-(2-chloro-4-fluoro-5-methoxyphenyl)-3-(isoquinolin-4-yl)-2,4-dioxo-3,4-dihydrofuro[3,2-d]pyrimidin-1(2H)-yl)methyl)cyclopropane-1-carbonitrile]", "pIC50": 7.56}
{"smiles": "Cn1ncc2cncc(-n3c(=O)c4oc(-c5ccccc5Cl)cc4n(CC4(C#N)CC4)c3=O)c21", "note": "[Example 48]", "pIC50": 8.06}
{"smiles": "COc1cc(-c2cc3c(o2)c(=O)n(-c2cncc4cnn(C)c24)c(=O)n3CC2(C#N)CC2)c(Cl)cc1F", "note": "[Example 49]", "pIC50": 8.05}
{"smiles": "N#CC1(Cn2c(=O)n(-c3cncc4ccccc34)c(=O)c3oc(-c4ccccc4Cl)cc32)CC1", "note": "[Example 50]", "pIC50": 8.17}
{"smiles": "COc1ccc2cncc(-n3c(=O)c4oc(-c5ccccc5Cl)cc4n(CC4(C#N)CC4)c3=O)c2c1", "note": "[Example 51]", "pIC50": 7.95}
{"target": "recombinant SARS-CoV-2 Main protease (Mpro) (Severe acute respiratory syndrome coronavirus 2, UniProt P0DTD1)", "test": "Cov Mpro Biochemical IC50 Assay", "details": "MPro IC50 (nM), 7.5 nM Mpro, fluorogenic peptide substrate 40 μM, 20 min pre-incubation", "units": {"IC50": "nM"}}
{"smiles": "O=c1[nH]c2cc(-c3ccccc3Cl)oc2c(=O)n1-c1cncc2ccccc12", "note": "[Example 4, 6-(2-chlorophenyl)-3-(4-isoquinolyl)-1H-furo[3,2-d]pyrimidine-2,4-dione]", "IC50": 92.1}
{"smiles": "COc1cc(-c2cc3[nH]c(=O)n(-c4cncc5ccccc45)c(=O)c3o2)c(Cl)cc1F", "note": "[Example 11, 6-(2-chloro-4-fluoro-5-methoxy-phenyl)-3-(4-isoquinolyl)-1H-furo[3,2-d]pyrimidine-2,4-dione]", "IC50": 45.1}
